The text below walks through data of a collection of fitness landscapes (doi:10.1126/science.1257360).

This is one part of the list.

To fix the notation:
B1: PhoQ; a variant is named by its letters at X, in order, P23837 (parent)
chain: MKKLLRLFFPLSLRVRFLLATAAVVLVLSLAYGMVALIGYSVSFDKTTFRLLRGESNLFYTLAKWENNKLHVELPENIDKQSPTMTLIYDENGQLLWAQRDVPWLMKMIQPDWLKSNGFHEIEADVNDTSLLLSGDHSIQQQLQEVREDDDDAEMTHSVAVNVYPATSRMPKLTIVVVDTIPVELKSSYMVWSWFIYVLSANLLLVIPLLWVAAWWSLRPIEALAKEVRELEEHNRELLNPATTRELTSLVRNLNRLLKSERERYDKYRTTLTDLTHSLKTPLXXLQXXLRSLRSEKMSVSDAEPVMLEQISRISQQIGYYLHRASMRGGTLLSRELHPVAPLLDNLTSALNKVYQRKGVNISLDISPEISFVGEQNDFVEVMGNVLDNACKYCLEFVEISARQTDEHLYIVVEDDGPGIPLSKREVIFDRGQRVDTLRPGQGVGLAVAREITEQYEGKIVAGESMLGGARMEVIFGRQHSAPKDE

Variants of B1 are the subject of this assay. The experiment in a line: enrichment ratio after two sorts for PhoP signalling (ratio (wild type AVST 3.29)); higher = more functional. Conditions: with PhoP (E. coli).
Take PFAG: the enrichment ratio was no more than 0.25.
Regarding EAIW, the enrichment ratio was no more than 0.25.
For WSRP, the enrichment ratio was no more than 0.25.
In the case of IDSW, the enrichment ratio is no more than 0.25.
To YSQR belongs no more than 0.25.
To DKVG belongs no more than 0.25; to PCMF, no more than 0.25.
For the variant VECS, the enrichment ratio turned out to be 3.02.
For PPEF, the enrichment ratio was no more than 0.25.
For PVVS the value was no more than 0.25.
As for WTAA, the enrichment ratio is no more than 0.25.
NFES: the enrichment ratio was no more than 0.25.
Regarding PKCM, the enrichment ratio was no more than 0.25.
As to IHVE, the enrichment ratio was no more than 0.25.
To SVEV belongs no more than 0.25; to PGPW, no more than 0.25; to SHVE, no more than 0.25.
Regarding KLWW, the enrichment ratio was no more than 0.25.
With RGCE, the enrichment ratio is no more than 0.25.
On to HQIP, for which the enrichment ratio was no more than 0.25.
On to SPAD, for which the enrichment ratio was no more than 0.25.
On to RDGI, for which the enrichment ratio is no more than 0.25.
To EKVF belongs no more than 0.25; to TMQC, 8.16; to FLDD, no more than 0.25.
Consider HHTD, for which the enrichment ratio was no more than 0.25.
For PADV, the enrichment ratio was no more than 0.25.
QISL: the enrichment ratio was found to be 1.56.
To SYSM belongs no more than 0.25.
With QQTK, the enrichment ratio was no more than 0.25.
For YMVH the value was no more than 0.25.
NLRK: the enrichment ratio is no more than 0.25.
Turning to FCWE, the enrichment ratio was no more than 0.25.
On to NPPP, for which the enrichment ratio is no more than 0.25.
With WTKC, the enrichment ratio is no more than 0.25.
Regarding INAM, the enrichment ratio was found to be 2.33.
With DWNN, the enrichment ratio was no more than 0.25.
For DGRR the value was no more than 0.25; for YRET, no more than 0.25.
In the case of IAQE, the enrichment ratio was no more than 0.25.
For QGRF, the enrichment ratio was no more than 0.25.
To SNGA belongs 5.84; to IRFH, no more than 0.25; to HFVK, no more than 0.25.
Take FHKL: the enrichment ratio is no more than 0.25.
Regarding MMKY, the enrichment ratio was no more than 0.25.
For YHIT, the enrichment ratio was no more than 0.25.
As to YNHM, the enrichment ratio was no more than 0.25.
Regarding HYCR, the enrichment ratio was no more than 0.25.
For FWMS the value was no more than 0.25; for RHER, no more than 0.25; for SSAV, 12.9.
For PPTI the value was no more than 0.25; for DSIF, no more than 0.25.
For PVTF the value was no more than 0.25; for WCTY, no more than 0.25.
For the variant NDGK, the enrichment ratio is no more than 0.25.
Turning to NTFQ, the enrichment ratio was no more than 0.25.
To VLKR belongs no more than 0.25; to DRHL, no more than 0.25.
To YITY belongs 0.713.
To KYPD belongs 0.584; to PLFR, no more than 0.25; to FWDL, no more than 0.25.
For WCIC, the enrichment ratio is no more than 0.25.
YSWE: the enrichment ratio was no more than 0.25.
RSSR: the enrichment ratio was no more than 0.25.
For the variant SQFA, the enrichment ratio was no more than 0.25.
For AVKF, the enrichment ratio is no more than 0.25.
For the variant FLFM, the enrichment ratio was no more than 0.25.
As for EYET, the enrichment ratio is no more than 0.25.
To FNFK belongs no more than 0.25; to TKFS, no more than 0.25.
On to RRFH, for which the enrichment ratio is no more than 0.25.
To TCPG belongs no more than 0.25.
In the case of LSSL, the enrichment ratio was no more than 0.25.
In the case of RFQY, the enrichment ratio was no more than 0.25.
With TFER, the enrichment ratio is no more than 0.25.
Regarding NVVH, the enrichment ratio was no more than 0.25.
Take PQPF: the enrichment ratio is no more than 0.25.
For the variant SDTC, the enrichment ratio came to 1.23.
On to RMDM, for which the enrichment ratio is no more than 0.25.
As to VWSD, the enrichment ratio is no more than 0.25.
On to GKNP, for which the enrichment ratio was no more than 0.25.
SDAS: the enrichment ratio was found to be 0.554.
In the case of WYFN, the enrichment ratio was no more than 0.25.
As for PLTN, the enrichment ratio was no more than 0.25.
Turning to REQG, the enrichment ratio was no more than 0.25.
To HKMW belongs no more than 0.25; to SEND, no more than 0.25; to MQFI, 0.491.
Consider WFME, for which the enrichment ratio is no more than 0.25.
For the variant VKSC, the enrichment ratio was no more than 0.25.
With VCLE, the enrichment ratio is no more than 0.25.
With RRFW, the enrichment ratio is no more than 0.25.
To WKIT belongs no more than 0.25.
For TIYK, the enrichment ratio was no more than 0.25.
Consider MPMY, for which the enrichment ratio is no more than 0.25.
EDWR: the enrichment ratio is no more than 0.25.
To GSTV belongs 9.64.
To SLTW belongs 7.18.
On to FDAP, for which the enrichment ratio was no more than 0.25.
To PYRK belongs no more than 0.25; to WTPF, no more than 0.25.
To GSND belongs no more than 0.25; to LCNI, 1.56.
With GTLW, the enrichment ratio was determined as 3.11.
For WDNV, the enrichment ratio is no more than 0.25.
For MRES, the enrichment ratio was no more than 0.25.
As for IQYF, the enrichment ratio is no more than 0.25.
Turning to SAMP, the enrichment ratio was no more than 0.25.
In the case of HLCD, the enrichment ratio was no more than 0.25.
Consider GQIF, for which the enrichment ratio was no more than 0.25.
On to DPPH, for which the enrichment ratio was no more than 0.25.
FVCP: the enrichment ratio was no more than 0.25.
For LWRK, the enrichment ratio was no more than 0.25.
Turning to PYMG, the enrichment ratio is no more than 0.25.
Turning to NGSN, the enrichment ratio is no more than 0.25.
On to GISC, for which the enrichment ratio came out at 11.8.
With HAGI, the enrichment ratio was no more than 0.25.
For GRCK the value was no more than 0.25; for MNVI, 1.33.
Regarding PTLC, the enrichment ratio is no more than 0.25.
For the variant LHEK, the enrichment ratio was no more than 0.25.
Consider QSIH, for which the enrichment ratio is no more than 0.25.
In the case of SHET, the enrichment ratio is no more than 0.25.
To AVFR belongs no more than 0.25; to PVVM, no more than 0.25.
For TCIW the value was no more than 0.25; for MQHL, no more than 0.25.
For DVYG, the enrichment ratio was no more than 0.25.
To DPFR belongs no more than 0.25; to FMRE, no more than 0.25; to DSDT, no more than 0.25.
As to DQQD, the enrichment ratio was no more than 0.25.
Regarding MCWA, the enrichment ratio was no more than 0.25.
With ACQH, the enrichment ratio is no more than 0.25.
As for MYGG, the enrichment ratio was no more than 0.25.
For LKQF the value was no more than 0.25.
Consider TKLT, for which the enrichment ratio was determined as 15.3.
Turning to KFYC, the enrichment ratio was no more than 0.25.
With QTWW, the enrichment ratio is no more than 0.25.
On to SLAV, for which the enrichment ratio stood at 9.05.
Regarding AFCQ, the enrichment ratio is no more than 0.25.
As for DTLC, the enrichment ratio was no more than 0.25.
For YPCA, the enrichment ratio is no more than 0.25.
To HNIN belongs no more than 0.25.
For GISM the value was 18.4.
For GLYH the value was no more than 0.25; for YHGY, no more than 0.25; for MLEF, no more than 0.25.
Regarding WMER, the enrichment ratio was no more than 0.25.
For YISV the value was 1.26.
